Test results reported in the supplement of paper PMC4967469.
IC50 is the fitted dose that halves viability relative to control wells, and lower means more sensitive; where the fit passes the top or lowest dose, that dose stands as a limit. AUC, from the same fit, is the share of area under the viability curve across the 256-fold dose range; it is 1 without any effect and falls as sensitivity rises. For part of these data: The top dose, if marked as inferred, is not printed in the source and was worked back from the curve model. For part of these data: An entry number marks a drug with two screens in the source, which often give different values.

Key:
Experiment in all cases: Viability of human cancer cell lines after 72 h of drug (GDSC screen)
[1] = compound: O=C(NC1CC1)c1cccc(-c2ccc3c(NC(=O)C4CC4)n[nH]c3c2)c1 [XMD13-2]; conditions: top dose 10.24 µM; top dose inferred
Procedure: (§1)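 Human cancer cell lines in 384-well plates, medium with 10% serum, drug for 72 h over a 256-fold dose range (nine 2-fold or five 4-fold steps up to the top dose). Adherent lines were fixed and stained with the nucleic acid dye Syto60, suspension lines read with resazurin; signal relative to control wells, capped at 0 and 100%. One two-parameter sigmoid per drug and line, fitted in a mixed model over all curves with the slope shared within a line.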

[2] = compound: CC1(C)CC(=O)c2c(C(F)(F)F)nn(-c3ccc(C(N)=O)c(N[C@H]4CC[C@H](O)CC4)c3)c2C1 [SNX-2112]; conditions: top dose 2.56 µM
Procedure: as §1

[3] = compound: CN(c1ncccc1CNc1nc(Nc2ccc3c(c2)CC(=O)N3)ncc1C(F)(F)F)S(C)(=O)=O [PF-562271]; conditions: top dose 2.56 µM; top dose inferred
Procedure: as §1

[4] = compound: CN(C)C/C=C/C(=O)Nc1cc2c(Nc3ccc(F)c(Cl)c3)ncnc2cc1O[C@H]1CCOC1 [Afatinib]
Procedure: as §1

[5] = compound: CC[C@]1(O)C[C@@H]2CN(CCc3c([nH]c4ccccc34)[C@@](C(=O)OC)(c3cc4c(cc3OC)N(C)[C@H]3[C@@](O)(C(=O)OC)[C@H](OC(C)=O)[C@]5(CC)C=CCN6CC[C@]43[C@@H]65)C2)C1 [Vinblastine]; conditions: top dose 0.1 µM; top dose inferred
Procedure: as §1

[6] = top dose 0.5 µM, screen: GDSC drug entry 1032
[7] = top dose 10 µM, screen: GDSC drug entry 1377, top dose inferred

Row | Cell Line | AUC [1] | IC50 [1] [nM] | AUC [2] | IC50 [2] [nM] | AUC [3] | IC50 [3] [nM] | AUC [4, 6] | IC50 [4, 6] [nM] | AUC [4, 7] | IC50 [4, 7] [nM] | AUC [5] | IC50 [5] [nM]
1 | NCI-H2087 (lung adenocarcinoma, semi-adherent) | 0.917 | > 10200 | 0.556 | 231 | 0.874 | > 2560 | 0.982 | > 500 | 0.957 | > 10000 | 0.704 | 24.6
2 | LU-134-A (small cell lung carcinoma, suspension) | 0.941 | > 10200 | 0.3 | 42.1 | 0.939 | > 2560 | 0.987 | > 500 | 0.985 | > 10000 | 0.804 | 53.8
3 | FU-OV-1 (ovary, adherent) | 0.972 | > 10200 | 0.899 | > 2560 | 0.931 | > 2560 | 0.936 | > 500 | 0.926 | > 10000 | 0.893 | > 100
4 | DMS-53 (small cell lung carcinoma, adherent) | 0.987 | > 10200 | 0.977 | > 2560 | 0.978 | > 2560 | 0.988 | > 500 | 0.974 | > 10000 | 0.986 | > 100
5 | ES7 (Ewing sarcoma, adherent) | 0.639 | 1570 | 0.208 | 21.5 | 0.984 | > 2560 | 0.968 | > 500 | 0.849 | 7790 | 0.47 | 5.15
6 | COR-L23 (large cell lung carcinoma, adherent) | 0.888 | > 10200 | 0.632 | 365 | 0.887 | > 2560 | 0.982 | > 500 | 0.979 | > 10000 | 0.446 | 4.47
7 | NB6 (neuroblastoma, adherent) | 0.867 | > 10200 | 0.858 | > 2560 | 0.977 | > 2560 | 0.983 | > 500 |  |  | 0.785 | 53.6
8 | DAN-G (pancreas, adherent) | 0.982 | > 10200 | 0.714 | 588 | 0.982 | > 2560 | 0.976 | > 500 |  |  | 0.925 | > 100
9 | CAL-78 (chondrosarcoma, adherent) | 0.98 | > 10200 | 0.58 | 275 | 0.891 | > 2560 | 0.986 | > 500 | 0.946 | > 10000 | 0.637 | 15.8
10 | AU565 (breast, adherent) | 0.948 | > 10200 | 0.82 | 1700 | 0.971 | > 2560 | 0.551 | 43.9 | 0.379 | 279 | 0.384 | 2.89
11 | SW13 (adrenal gland, adherent) | 0.983 | > 10200 | 0.986 | > 2560 | 0.923 | > 2560 | 0.756 | 172 | 0.631 | 1440 | 0.501 | 6.29
12 | HOP-92 (large cell lung carcinoma, adherent) | 0.974 | > 10200 | 0.601 | 318 | 0.835 | 2070 | 0.977 | > 500 | 0.947 | > 10000 | 0.646 | 17
13 | BV-173 (chronic myeloid leukaemia, suspension) | 0.596 | 1130 | 0.337 | 59.9 | 0.881 | 2130 | 0.973 | > 500 | 0.981 | > 10000 | 0.131 | 0.525
14 | VMRC-MELG (melanoma, adherent) | 0.987 | > 10200 | 0.61 | 325 | 0.874 | > 2560 | 0.988 | > 500 | 0.988 | > 10000 | 0.813 | 56.9
15 | K2 (melanoma, adherent) | 0.934 | > 10200 | 0.906 | > 2560 | 0.803 | 1740 | 0.982 | > 500 | 0.98 | > 10000 | 0.749 | 41.2
16 | SF126 (glioma, adherent) | 0.977 | > 10200 | 0.437 | 106 | 0.881 | > 2560 | 0.986 | > 500 | 0.982 | > 10000 | 0.629 | 14.5
17 | GRANTA-519 (B-cell lymphoma, suspension) | 0.877 | 8510 | 0.653 | 405 | 0.982 | > 2560 | 0.991 | > 500 | 0.97 | > 10000 | 0.601 | 11.4
18 | CAL-51 (breast, adherent) | 0.983 | > 10200 | 0.973 | > 2560 | 0.852 | 1580 | 0.985 | > 500 | 0.957 | > 10000 | 0.579 | 9.98

Row | Cell Line | AUC [1] | IC50 [1] [nM] | AUC [2] | IC50 [2] [nM] | AUC [3] | IC50 [3] [nM] | AUC [4, 6] | IC50 [4, 6] [nM] | AUC [4, 7] | IC50 [4, 7] [nM] | AUC [5] | IC50 [5] [nM]
19 | NCI-H1755 (lung adenocarcinoma, adherent) | 0.984 | > 10200 | 0.428 | 98.7 | 0.967 | > 2560 | 0.983 | > 500 | 0.947 | > 10000 | 0.663 | 19.1
20 | LS-513 (large intestine, adherent) | 0.899 | > 10200 | 0.347 | 59.1 | 0.964 | > 2560 | 0.896 | > 500 | 0.975 | > 10000 | 0.78 | 42.9
21 | DMS-79 (small cell lung carcinoma, suspension) | 0.974 | > 10200 | 0.864 | > 2560 | 0.987 | > 2560 | 0.987 | > 500 | 0.983 | > 10000 | 0.983 | > 100
22 | NCI-H2347 (lung adenocarcinoma, adherent) | 0.979 | > 10200 | 0.982 | > 2560 | 0.907 | > 2560 | 0.982 | > 500 | 0.935 | > 10000 | 0.849 | > 100
23 | KARPAS-422 (B-cell lymphoma, suspension) | 0.915 | > 10200 | 0.466 | 130 | 0.94 | > 2560 | 0.986 | > 500 | 0.978 | > 10000 | 0.753 | 33
24 | BB65-RCC (kidney, adherent) | 0.966 | > 10200 | 0.566 | 249 | 0.944 | > 2560 | 0.788 | 256 | 0.849 | 9250 | 0.688 | 22.9
25 | SK-MEL-3 (melanoma, adherent) | 0.914 | > 10200 | 0.875 | > 2560 | 0.983 | > 2560 | 0.974 | > 500 | 0.968 | > 10000 | 0.924 | > 100
26 | KNS-81-FD (glioma, adherent) | 0.919 | > 10200 | 0.859 | > 2560 | 0.919 | > 2560 | 0.965 | > 500 | 0.97 | > 10000 | 0.536 | 8.11
27 | KYSE-150 (oesophagus, adherent) | 0.968 | > 10200 | 0.733 | 715 | 0.83 | 1510 | 0.989 | > 500 | 0.974 | > 10000 | 0.8 | 46.2
28 | ES4 (Ewing sarcoma, adherent) | 0.868 | > 10200 | 0.563 | 243 | 0.915 | > 2560 | 0.826 | 366 | 0.763 | 4110 | 0.619 | 14
29 | EoL-1-cell (haematopoietic neoplasm, suspension) | 0.869 | 7620 | 0.217 | 27 | 0.906 | > 2560 | 0.963 | > 500 | 0.935 | > 10000 | 0.27 | 1.52
30 | SK-MEL-2 (melanoma, adherent) | 0.87 | 10200 | 0.955 | > 2560 | 0.924 | > 2560 | 0.987 | > 500 | 0.959 | > 10000 | 0.441 | 4.29
31 | EW-18 (Ewing sarcoma, suspension) | 0.71 | 2620 | 0.486 | 146 | 0.891 | > 2560 | 0.975 | > 500 | 0.962 | > 10000 | 0.536 | 7.9
32 | NH-12 (neuroblastoma, adherent) | 0.733 | 3240 | 0.43 | 100 | 0.904 | > 2560 | 0.958 | > 500 |  |  | 0.7 | 24.6
33 | TE-5 (oesophagus, adherent) | 0.967 | > 10200 | 0.927 | > 2560 | 0.888 | > 2560 | 0.938 | > 500 | 0.92 | > 10000 | 0.514 | 6.85
34 | SK-N-DZ (neuroblastoma, adherent) | 0.982 | > 10200 | 0.737 | 753 | 0.971 | > 2560 | 0.987 | > 500 | 0.857 | 8000 | 0.757 | 34
35 | H513 (mesothelioma, semi-adherent) | 0.971 | > 10200 | 0.972 | > 2560 | 0.985 | > 2560 | 0.957 | > 500 | 0.86 | > 10000 | 0.85 | > 100
